# In paper PMC4336329 (PLoS ONE, 2015):
# The whole screen tested about 310,000 compounds, of which about 2,200 (0.71%) showed an effect of 50% or more. The effect is printed as a negative number. Some of the results follow.
# Target: human ether-à-go-go-related gene (hERG) potassium channel (human, UniProt Q12809)
# Experiment: primary screen, population patch clamp on CHO cells stably expressing hERG
# human ether-à-go-go-related gene (hERG) potassium channel, sequence (Q12809 whole entry, looked up): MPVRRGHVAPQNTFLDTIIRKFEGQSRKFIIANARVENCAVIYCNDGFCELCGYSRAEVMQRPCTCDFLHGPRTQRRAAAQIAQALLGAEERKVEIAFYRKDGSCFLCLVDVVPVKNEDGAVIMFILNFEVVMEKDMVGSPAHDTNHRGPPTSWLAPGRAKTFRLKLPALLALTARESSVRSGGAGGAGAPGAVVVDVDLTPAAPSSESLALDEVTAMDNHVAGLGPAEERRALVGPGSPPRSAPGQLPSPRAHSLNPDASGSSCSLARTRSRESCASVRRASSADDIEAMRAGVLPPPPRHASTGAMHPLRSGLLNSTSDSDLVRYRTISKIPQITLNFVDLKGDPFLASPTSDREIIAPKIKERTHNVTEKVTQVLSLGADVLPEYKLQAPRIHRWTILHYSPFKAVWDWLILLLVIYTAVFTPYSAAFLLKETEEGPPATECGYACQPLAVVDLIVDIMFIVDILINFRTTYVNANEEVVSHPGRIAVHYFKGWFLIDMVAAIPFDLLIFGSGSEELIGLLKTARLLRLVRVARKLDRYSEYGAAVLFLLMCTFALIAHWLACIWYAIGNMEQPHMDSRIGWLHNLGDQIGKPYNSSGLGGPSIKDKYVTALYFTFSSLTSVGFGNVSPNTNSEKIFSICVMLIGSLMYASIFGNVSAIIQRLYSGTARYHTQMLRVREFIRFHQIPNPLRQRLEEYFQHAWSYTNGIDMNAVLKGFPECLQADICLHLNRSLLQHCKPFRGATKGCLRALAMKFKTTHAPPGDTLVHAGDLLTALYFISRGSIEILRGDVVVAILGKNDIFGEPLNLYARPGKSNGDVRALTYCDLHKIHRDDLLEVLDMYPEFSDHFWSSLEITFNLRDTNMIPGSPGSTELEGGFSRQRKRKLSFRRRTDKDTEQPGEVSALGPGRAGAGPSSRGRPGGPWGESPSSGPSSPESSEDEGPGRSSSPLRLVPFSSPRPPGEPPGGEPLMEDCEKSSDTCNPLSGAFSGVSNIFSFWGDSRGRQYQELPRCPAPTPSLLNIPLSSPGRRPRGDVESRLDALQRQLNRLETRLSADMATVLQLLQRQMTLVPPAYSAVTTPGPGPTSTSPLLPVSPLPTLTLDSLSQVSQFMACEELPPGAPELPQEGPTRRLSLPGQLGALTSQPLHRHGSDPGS
row,SMILES,"hERG current change (%, negative = inhibition) at 1uM [%]"
1,COc1ccc(C(=O)NC(=S)Nc2ccccc2N2CCCCC2)cc1[N+](=O)[O-],2.83
2,O=C(Cc1ccc(-c2ccccc2)cc1)NCc1cccnc1,-20.7
3,O=Cc1cn(-c2ccccc2)nc1-c1cc2ccccc2oc1=O,9.74
4,Fc1cccc(Nc2nc(Cl)nc(Cl)n2)c1,7.77
5,Cn1cc(/C=C/C(=O)N2CCCC(C(=O)c3ccc(C(C)(C)C)cc3)C2)cn1 (stereo not drawn),2.3
6,Cc1onc(-c2ccccc2)c1C(=O)Nc1nc(-c2ccccc2)cs1,-8.54
7,COC(=O)c1ccccc1NC(=O)c1nc2nc(C)cc(C)n2n1,9.64
8,CC(=O)Nc1ccc(OCC(O)CN2CCN(c3cc(Cl)ccc3C)CC2)cc1 (stereo not drawn),1.43
9,Nc1cc(-c2cccc(Br)c2)nn1Cc1ccccc1,6.44
10,O=C(NCCN1CCOCC1)C1CCC(=O)N1C1CCCCC1 (stereo not drawn),6.4
11,Fc1ccc(-n2ncc3c(SCc4cccnc4)ncnc32)cc1,8.59
12,Cc1ccc(Cl)cc1NC(=O)CNCC(c1ccccc1)N(C)C.O=C(O)C(=O)O (stereo not drawn),5.69
13,CCC1ON(c2ccccc2)C2c3nc4ccccc4n3CC12 (stereo not drawn),14.1
14,CCn1ncc(-c2cc(C(=O)O)no2)c1C,9.66
15,CCc1cc(=O)[nH]c(SCC(=O)Nc2ccc3c(c2)OCCO3)n1,12.4
16,C/C(=N\NC(=S)Nc1ccc(F)cc1)c1ccc2c(c1)OCCO2,14.9
17,Cc1nn(CCC#N)c2nc(-c3ccccc3)cc(C(F)(F)F)c12,2.72
18,O=C(CSc1ccc([N+](=O)[O-])cc1)Nc1cccc(S(=O)(=O)Nc2ccccc2F)c1,-10.3
19,COc1ccc(C)cc1NC(=O)CN1C(=O)c2cccc3cccc1c23,13.9
20,CN(Cc1ccno1)Cc1cn(C)nc1-c1ccc(Oc2ccccc2)cc1,8.21
21,CCCCN(C)CCC(=O)Nc1ccc(F)c(F)c1.Cl,9.37
22,CC/C(CC(C)(C)c1ccccc1)=N\O,2.48

row,SMILES,"hERG current change (%, negative = inhibition) at 1uM [%]"
1,COc1ccc(Br)cc1CNc1ccc2[nH]c(=O)[nH]c2c1,11.6
2,O=C(CSc1ccccn1)NC1CCCC1,15.8
3,CC(=O)c1c(C)[nH]c(C(=O)N2CCC3(CC2)OCCO3)c1C,18.8
4,Cc1scc(C(=O)NNC(=S)NC(C)c2ccccc2)c1C (stereo not drawn),6.56
5,O=c1nc(/C=C/c2ccccc2C(F)(F)F)cc(C(F)(F)F)[nH]1,14.9
6,Cc1c2cnn(-c3ccccc3)c(=O)c2c(C)n1CCCC(=O)N1CCN(C2CCCCC2)CC1,1.08
7,Cc1c(N=Cc2c(O)n(Cc3ccccc3)c(=O)[nH]c2=O)c(=O)n(-c2ccccc2)n1C,12.4
8,CN(C)/C=N/c1ncc(C(=O)c2ccc(-c3ccccc3)cc2)s1,5.65
9,COCCN(Cc1ccccc1)C(=O)c1cccc(S(=O)(=O)N2CCN(c3ccc(F)cc3)CC2)c1,-5.5
10,CN(C)S(=O)(=O)c1cccc(NC(=O)COC(=O)c2cccc(S(=O)(=O)N3CCc4ccccc4C3)c2)c1,5.93
11,CS(=O)(=O)c1ccc(CNC(=O)C2(C(F)(F)F)C/C(=C\Cc3ccccc3)CCCO2)cc1 (stereo not drawn),7.41
12,S=C(NCc1cccnc1)Nc1cccc(Cl)c1,0.891
13,COc1ccccc1C(=O)C1CCCN(C(=O)c2cnn(C(C)C)c2)C1 (stereo not drawn),14.4
14,O=C(Nc1ccccc1O)c1cccc(S(=O)(=O)N2CCOCC2)c1,10.3
15,Cc1ccc2c(cnn2C(=O)CCCC(=O)NCc2ccc(Cl)cc2)c1,3.59
16,COc1cccc(Nc2nc(-c3ccccc3O)nc3ccccc23)c1,19.4
17,Cn1nnnc1SCCNC(=O)C1CCC(=O)N(CCc2ccccc2)C1 (stereo not drawn),9.14
18,COc1ccc(Cl)cc1C(=O)Nc1ccc(Br)c(C)n1,10.1
19,Cc1cccc2c1N(C(=O)CN1C(=O)c3ccccc3C1=O)C(C)(C)c1ssc(=S)c1-2,22.1
20,COc1ccc(-c2cc(=O)oc3c(C)c(OC(C)C(=O)Nc4ccc(CN5CCOCC5)cc4)ccc23)cc1 (stereo not drawn),6.47
21,CCOC(=O)N1CCN(S(=O)(=O)c2ccc(Br)s2)CC1,4.21
22,CC1(c2nnc(-c3ccc(F)cc3)o2)CC(c2ccncc2)=NO1 (stereo not drawn),8.25

row,SMILES,"hERG current change (%, negative = inhibition) at 1uM [%]"
1,COc1cccc(-c2cc(C(F)(F)F)c(C#N)c(=O)[nH]2)c1,5.54
2,CCOC(=O)/C(C(N)=NCCO)=C(/O)c1ccccc1,7.92
3,COc1ccc(CN(Cc2cccn2C)S(=O)(=O)c2ccc(F)cc2)cc1,7.76
4,CCOP(=O)(OCC)/C(=N/OC(=O)c1ccccc1C)C(N)=O,7.21
5,CCOC(=O)CN1C(=O)COc2ccc(Cl)cc21,13.2
6,CCOCC(=O)Nc1ccccc1C(=O)N1CCOCC1,12.4
7,CCOc1ccc2[nH]c(=O)c(CN(CCO)Cc3nnnn3CCc3ccccc3)cc2c1,-15.8
8,O=C(Nc1cc(S(=O)(=O)N2CCOCC2)ccc1N1CCOCC1)c1cc2c(s1)CCC2,6.01
9,O=C(O)C1C2C=CC3(CN(CC(O)COc4ccccc4)C(=O)C13)O2 (stereo not drawn),12.3
10,CCOC(=O)N1CCC(N2C(=O)c3ccc(C(=O)NCc4ccco4)cc3C2=O)CC1,3.56
11,O=C(CSc1nc(-c2ccc(Cl)cc2)cs1)Nc1cccc([N+](=O)[O-])c1,11.8
12,O=C(O)c1cccnc1Sc1ccccc1Cl,14.4
13,COC(=O)C(=O)C/C(=N/Nc1ncnc2ccccc12)c1ccc(Cl)cc1,-0.965
14,Cc1ccc(S(=O)(=O)N2CCOCC2)cc1C(=O)Nc1ccc2c(c1)CCC2,5.95
15,Cc1c(C(c2ccccc2O)c2c(C)n(C)n(-c3ccccc3)c2=O)c(=O)n(-c2ccccc2)n1C,3.29
16,CC1CCCCC12NC(=O)N(CC(=O)N1CCc3ccccc31)C2=O (stereo not drawn),8
17,CC(=O)Oc1cc2c3c(c1)/C(=C1/SC(=S)NC1=O)C(=O)N3C(C)(C)C=C2C,25
18,COc1cc(OC)cc(C(=O)Nc2ccc(N(C)C)c3ccccc23)c1,16
19,O=[N+]([O-])c1cccnc1Oc1cccnc1,20.7
20,Cc1ncoc1C(=O)N1CCCC(C(=O)c2cccc(OC(C)C)c2)C1 (stereo not drawn),6.56
21,COc1ccc(S(=O)(=O)N2CCN(C(=O)c3c(-c4ccccc4)noc3C)CC2)cc1,-0.297
22,Cn1c(=O)n(CCOc2ccc(Cl)cc2Cl)c2ccccc21,-0.208

row,SMILES,"hERG current change (%, negative = inhibition) at 1uM [%]"
1,Cc1nn(CC(=O)N2CCOCC2)c(=O)c2nn(-c3ccccc3)c(C)c12,16.5
2,O=C(OCC(=O)N1CCN(C(=O)c2ccco2)CC1)c1cccc(S(=O)(=O)N2CCc3ccccc32)c1,-3.96
3,O=C(Nc1cccc2ncccc12)C(Cl)(Cl)Cl,4.09
4,Cc1cc(NC(=O)C(=O)NCCN2CCN(C(=O)c3cccs3)CC2)ccc1Br,-37
5,COC(=O)c1cc(C(=O)CC(C)C)c[nH]1,2.96
6,COc1ccc(CNC(=O)C2CC(c3cccc([N+](=O)[O-])c3)=NO2)cc1 (stereo not drawn),5.46
7,S=C(Nc1cc(Cl)cc(Cl)c1)N1CCN(c2ccccn2)CC1,17.4
8,c1cncc(CNc2nc(N3CCOCC3)nc(N3CCOCC3)n2)c1,2.65
9,CCn1c2ccc(F)cc2c2nc3ccccc3nc21,10.2
10,CCC1(c2ccccc2)NC(=O)N(CC(=O)N(C)Cc2ccccc2)C1=O (stereo not drawn),14.8
11,COC(=O)c1cc2n(n1)CCN(Cc1ccccc1Cl)C2=O,0.155
12,COc1ccccc1NC(=O)c1ccc(COc2ccccc2Br)o1,13.8
13,Cc1noc(C)c1C(=O)N1CCC(C(=O)c2ccc(F)cc2F)CC1,16.8
14,CCn1c2ccccc2c2cc(NC(=O)c3ccccc3[N+](=O)[O-])ccc21,14.1
15,CC1CCN(S(=O)(=O)c2ccc3nc(N4CCN(c5ccccc5)CC4)ccc3c2)CC1,14.1
16,COc1ccc(Cc2nnc(NC(=O)c3ccccc3F)s2)cc1OC,8.9
17,CCOc1ccc(S(=O)(=O)NCc2cccnc2)cc1C(C)C,18.5
18,Cc1ccc(S(=O)(=O)N[C@H](C(=O)OCC(=O)NC(=O)Nc2ccc3c(c2)OCCO3)C(C)C)cc1,14.4
19,CCN(CC)S(=O)(=O)c1ccc(Cl)c(OC)c1,7.58
20,COc1ccc(CNC(=O)C(=O)NCC2OCCN2S(=O)(=O)c2ccc(OC)c(OC)c2)cc1 (stereo not drawn),7.81
21,CCCCSc1nc2c(cnn2-c2ccc(Cl)cc2)c(=O)[nH]1,-0.955
